This is an account of results in ChEMBL document CHEMBL4888484, “Replenishing the malaria drug discovery pipeline: Screening and hit evaluation of the MMV Hit Generation Library 1 (HGL1) against asexual blood stage Plasmodium falciparum ,using a nano luciferase reporter read-out” (2022).

As usually defined, the % Inhibition is the relative decrease from the control value, in per cent.

The whole screen tested about 150,000 compounds, of which about 540 (0.36%) showed an effect of 50% or more. This is one part of the list.

In the experiment the test system is Plasmodium falciparum. The experiment can be described thus: Primary screen in NF54 nanoGlo assay, in single point, at 2uM, 72h; a lower Z score goes with more inhibition. The following applies: timepoint 72 hour. The class given is functional, Erythrocyte.
As to `CC=C(C)C(=O)NS(=O)(=O)Cc1cc(Cl)ccc1F`, the “% Inhibition” value was 29% and the Z score is on record as -3.87.

Consider `COc1ccc(-n2cccc2-c2ncc[nH]2)cc1`, for which the “% Inhibition” value turned out to be 5% and the Z score is -0.42.

`COc1ccc(NC(=O)Cc2nc(Cc3ccccc3F)n[nH]2)cc1`: the “% Inhibition” value is recorded as -13% and the Z score is given as 1.68.

`CN(C)C(=O)c1cncc(N[C@H]2CCCC[C@@H]2c2ccccc2)n1`: the “% Inhibition” value is recorded as -5% and the Z score is given as 0.92.

On to `O=C1CC[C@]2(C(=O)NC3CCN(Cc4ccccc4)CC3)CCC=C2N1C1CCCC1`, for which the “% Inhibition” value is on record as -5% and the Z score was 0.54.

Take `Cn1cnnc1CN1C[C@@H](C(F)(F)F)OC(C)(C)C1`: the “% Inhibition” value is recorded as -1% and the Z score is given as 0.13.

Regarding `O=C(NCCN1CCCCC1)c1cc2n(n1)CCN(Cc1ccccc1)C2=O`, the “% Inhibition” value is reported as -3% and the Z score is given as 0.38.

Turning to `Cc1nc(CNc2cncc(OCCO)n2)c(C)s1`, the “% Inhibition” value is given as -9% and the Z score was 1.16.

Turning to `COc1nc2c(cc1C(=O)NCCn1ccnn1)C(=O)N(C1CCCC1)C2`, the “% Inhibition” value was -20% and the Z score worked out at 4.14.

For the compound `CCc1nnc(CN(CC)C[C@H]2COc3ccccc3O2)o1`, the “% Inhibition” value stood at 4% and the Z score is -0.53.

`O=c1ccn(-c2ccccc2)nc1-c1nc(-c2cccc(F)c2)no1`: the “% Inhibition” value is reported as -2% and the Z score is listed as 0.32.

`C[C@@H](C(=O)N(C)C)S(=O)(=O)Nc1cc(Cl)ccc1C#N`: the “% Inhibition” value came to 2% and the Z score was -0.25.

Regarding `Nc1ccnc(CN(Cc2ccccc2F)c2ccc(F)cc2)n1`, the “% Inhibition” value is given as 3% and the Z score is -0.53.

As for `CCOc1cc(Cl)ccc1C(=O)N[C@@H](C)CC#N`, the “% Inhibition” value is recorded as -9% and the Z score turned out to be 1.33.

`CN1CCN(S(=O)(=O)N2CCN(CCC(F)(F)F)CC2)CC1`: the “% Inhibition” value is -13% and the Z score is 1.26.

As to `Cc1nn(C)c(C)c1C(=O)C(=O)NCc1ccccc1OCC1CC1`, the “% Inhibition” value is given as -13% and the Z score was 1.99.

As for `CCc1nc2ccccc2n1[C@@H](CC)C(=O)NCCc1c[nH]cn1`, the “% Inhibition” value is given as -13% and the Z score was determined as 1.61.

Regarding `Cc1oc(-c2ccccc2)c(C(=O)N[C@@H](CC(F)F)C(=O)O)c1C`, the “% Inhibition” value was 3% and the Z score is reported as -0.31.

On to `CCS(=O)(=O)CCn1cc(C)c(N)n1`, for which the “% Inhibition” value was -11% and the Z score is 1.52.

With `Cc1nn(CCCC(=O)NCCc2ccccc2)c(=O)c2nccn12`, the “% Inhibition” value is recorded as -20% and the Z score is on record as 2.6.

For the compound `CCn1ccnc1Cn1ccc(-c2cccc(-c3ncccc3C#N)c2)n1`, the “% Inhibition” value was 10% and the Z score is on record as -1.24.

For `O=C(CN1N=C(c2ccccc2F)c2cc(Cl)ccc2S1(=O)=O)Nc1ccc(F)cc1`, the “% Inhibition” value is -26% and the Z score was determined as 2.43.

`CC(C)c1cc(C(=O)N(C)c2ccc3c(c2)CCO3)n(C)n1`: the “% Inhibition” value is given as -13% and the Z score is 1.29.

In the case of `COCCN(CC(=O)Nc1ccc(F)cc1Cl)CC(F)(F)F`, the “% Inhibition” value is -17% and the Z score is listed as 2.7.

As for `O=C(c1ccco1)N1CCN(C(=O)c2nc(N3CCCC3)nc3c2CCCC3)CC1`, the “% Inhibition” value is -25% and the Z score was 2.18.

Take `CCc1cc(C(=O)N2CCN(C/C=C/c3ccccc3)CC2)cc(=O)[nH]1`: the “% Inhibition” value came out at 0% and the Z score came out at 0.04.

`COc1ccc(S(=O)(=O)N2Cc3cnc(N4CCOCC4)nc3C2)cc1C`: the “% Inhibition” value is listed as -15% and the Z score is listed as 2.92.

As for `CCCn1nc(C)cc1CN(C)c1ncc(NS(=O)(=O)c2ccc(F)cc2)cc1C(=O)O`, the “% Inhibition” value is listed as -14% and the Z score is 1.36.

Consider `CCCN(Cc1cc(NC(=O)NCc2ccccc2)ccc1N(C)C)S(=O)(=O)c1ccc(F)cc1`, for which the “% Inhibition” value is -6% and the Z score is 0.71.

In the case of `CC(C)COC1CCN(c2ccc(C(F)(F)F)nn2)CC1`, the “% Inhibition” value came out at 0% and the Z score turned out to be 0.02.

Consider `CCc1ncc2c(n1)CN(C(=O)[C@H](C)NS(C)(=O)=O)C2`, for which the “% Inhibition” value is recorded as -1% and the Z score was 0.09.

As for `Nc1cncc(-n2cnc3ccccc32)c1`, the “% Inhibition” value is given as 9% and the Z score is -0.8.

`CCn1c(=O)c(CCC(=O)NC2CCCC2)nc2c(C)nn(-c3ccccc3)c21`: the “% Inhibition” value is recorded as -17% and the Z score is recorded as 2.46.

Turning to `Cc1cc(S(=O)(=O)N2CC(O)(C3CC3)C2)sc1C`, the “% Inhibition” value is -9% and the Z score is on record as 1.2.

For the compound `CCn1cc(C(=O)NC[C@H](C)Cn2ccnc2)cn1`, the “% Inhibition” value is -4% and the Z score was found to be 0.66.

On to `Cc1cccc(Cn2c(C(=O)NC[C@@]3(C)CCCO3)cc3cc(NC(=O)c4ccccc4F)ccc32)c1`, for which the “% Inhibition” value is recorded as -9% and the Z score is on record as 1.1.

As for `O=C([C@@H]1CC=CCC1)N1CCC(c2nnc(C(F)(F)F)o2)CC1`, the “% Inhibition” value is given as -3% and the Z score is recorded as 0.52.

Take `Cc1ccc([C@@H](C)NC(=O)NCCC2(O)CCOCC2)cc1F`: the “% Inhibition” value is given as -6% and the Z score is 0.84.

Take `Cn1nnc(CNC(=O)C[C@@H]2C=CCC2)n1`: the “% Inhibition” value is reported as -3% and the Z score amounted to 0.56.

For `COCC1=CCN(C(=O)Nc2cnc(N3CCCC[C@@H]3C)c(C)c2)CC1`, the “% Inhibition” value is -5% and the Z score amounted to 0.49.

As for `COCc1ccc(CNC(C)C2CCCOC2)cc1` (centres undefined), the “% Inhibition” value is on record as 4% and the Z score is listed as -0.71.

Take `CC(C)OC(=O)[C@H](C)NC(=O)C1CCC1`: the “% Inhibition” value was -1% and the Z score was determined as 0.13.
